Test results: publication PMC7819943, “Rice protein-binding microarrays: a tool to detect cis-acting elements near promoter regions in rice”
This is one part of the list.

These sequences were tested against T1, OsWOX13 (Oryza sativa, UniProt Q5QMM3 1-267) (assay: protein-binding microarray (RPBM); PBS, 2% BSA, 51.3 ng/ul salmon testes DNA, 50 uM zinc acetate, 200 nM TF, 25 C, 1 h; high values mean tight binding). Conditions: protein: recombinant; tags: N-terminal polyhistidine and DsRed monomer fusion (pET32a); label: CyDye5-dUTP incorporated in the synthesized complementary strand; 3' TTTTT single-stranded linker to array surface; dsDNA, one strand shown.
T1 sequence: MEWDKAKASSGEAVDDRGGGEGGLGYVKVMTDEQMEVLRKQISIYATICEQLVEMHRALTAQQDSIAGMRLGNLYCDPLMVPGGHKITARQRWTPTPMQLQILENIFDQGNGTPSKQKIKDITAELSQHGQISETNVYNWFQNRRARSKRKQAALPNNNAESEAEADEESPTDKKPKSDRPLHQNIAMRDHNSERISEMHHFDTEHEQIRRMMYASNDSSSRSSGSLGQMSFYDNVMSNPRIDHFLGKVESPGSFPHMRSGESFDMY
Method in brief: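 Binding signal is reported as fluorescence intensity per feature (arbitrary units) from an Axon 4000B scanner. Incubation used 200 nM of each Ni–NTA-purified, N-terminally polyhistidine- and DsRed-fused transcription factor from E. coli BL21-CodonPlus on a double-stranded custom Agilent array for 1 h at 25 °C, with 50 µM zinc acetate in the buffer, followed by washing.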
For “TAGCATATAATTATAAATGTAACTTAGGTGTAAATTATATCGGAGTCACCTAGTGCAG”, the binding signal was 9360 fluorescence intensity (a.u.).
With “TTCCCATCTTAATCTCATCATCAATTCCCTCGTGTAAACTCGGAGTCACCTAGTGCAG” the binding signal was 4180 fluorescence intensity (a.u.).
In the case of “TAGCTAATATTTAATTAATCACGCGTTAATGCGAACATCGCGGAGTCACCTAGTGCAG”, the binding signal is reported as 18300 fluorescence intensity (a.u.).
In the case of “TGGTGTCAAACTGTCAATAATGAAGCAGTGGAGCGCTGGACGGAGTCACCTAGTGCAG”, the binding signal is reported as 4240 fluorescence intensity (a.u.).
“AGAAGTAAGGTGATGATTTGACAAGACCACAGCTAATCAACGGAGTCACCTAGTGCAG” was tested, and the binding signal was 4580 fluorescence intensity (a.u.).
In the case of “CAACGCCATAATTGGGGACATCGACAGAGTAGTTACGTGTCGGAGTCACCTAGTGCAG”, the binding signal is reported as 12100 fluorescence intensity (a.u.).
With “TTTGATTGATTCATCGTTCTCTCATTTGACTTCATTGCTACGGAGTCACCTAGTGCAG” the binding signal was 38600 fluorescence intensity (a.u.).
In the case of “TATATTGGAATTTATTAATTAAAATTAGATCTTCTCTTCACGGAGTCACCTAGTGCAG”, the binding signal is reported as 12600 fluorescence intensity (a.u.).
“TTATGATTGTATATACCGTTTTCAAACGATTTTATGGTTGCGGAGTCACCTAGTGCAG” was tested, and the binding signal was 33500 fluorescence intensity (a.u.).
With “AGTAAATTGGTGTATGATTAGATTAACATGTTAAATGTATCGGAGTCACCTAGTGCAG” the binding signal was 53500 fluorescence intensity (a.u.).
“TATTGTCCAAAATGATAATTATTTTCAATCCGGAGGAAGTCGGAGTCACCTAGTGCAG” was tested, and the binding signal was 4920 fluorescence intensity (a.u.).
In the case of “GCCGACTGATTGCGGTTGTCCCATTGGAGATTGAGGTAATCGGAGTCACCTAGTGCAG”, the binding signal is reported as 31800 fluorescence intensity (a.u.).
In the case of “GAATTTATTGATTACAAAGAACAGGGACTCTTGTCACGAACGGAGTCACCTAGTGCAG”, the binding signal is reported as 11200 fluorescence intensity (a.u.).
“GGTATTTATACAGATGATAGATAACTATTTATACGAATGACGGAGTCACCTAGTGCAG” was tested, and the binding signal was 5490 fluorescence intensity (a.u.).
“GTTAATTTAGATGCAGTTATGTATATAAACTGTTCGTGGCCGGAGTCACCTAGTGCAG” was tested, and the binding signal was 31800 fluorescence intensity (a.u.).
“CCCAATTAGATGTCTTGTGTTGGGTTAGGCCCACTTGAACCGGAGTCACCTAGTGCAG” was tested, and the binding signal was 4070 fluorescence intensity (a.u.).
“CCGTGATAAATAAACGGACTGAAGGAGGAGGCGGCATGCACGGAGTCACCTAGTGCAG” was tested, and the binding signal was 3810 fluorescence intensity (a.u.).
“TTCATTAATCACAGATTCAATTTGCTCCTATATATAATCCCGGAGTCACCTAGTGCAG” was tested, and the binding signal was 12700 fluorescence intensity (a.u.).
With “CTGTTGACAGTGAAAATTATGCTTTGGCAGCTGCACTGCGCGGAGTCACCTAGTGCAG” the binding signal was 20900 fluorescence intensity (a.u.).
With “ATAGCAGCTGTCATCTCCAAATCATTGGAAGCCGGCCTCACGGAGTCACCTAGTGCAG” the binding signal was 5440 fluorescence intensity (a.u.).
“TGTTTCTGATCGTGATTAATGGTACGGTGGCTCAAACCATCGGAGTCACCTAGTGCAG” was tested, and the binding signal was 10400 fluorescence intensity (a.u.).
In the case of “AGTACTAATTAATCAGCTAGCAGTAGATGACAGTAGCTAGCGGAGTCACCTAGTGCAG”, the binding signal is reported as 18400 fluorescence intensity (a.u.).
“AGTTTAACTCACTCCAGTGATTAGGCCAGCAGATGGAGTGCGGAGTCACCTAGTGCAG” was tested, and the binding signal was 5690 fluorescence intensity (a.u.).
For “TTTGTCAGGATCATAATTATTGATGAATAGTTTATTTAGACGGAGTCACCTAGTGCAG”, the binding signal was 13400 fluorescence intensity (a.u.).
In the case of “TTTGATCGATCGATCAATTAGCTCGATCTCCATTAACAAGCGGAGTCACCTAGTGCAG”, the binding signal is reported as 11200 fluorescence intensity (a.u.).
“TAAATAAAACAATTAGCACTAGTGAGTGGTTTTCTCTTGACGGAGTCACCTAGTGCAG” was tested, and the binding signal was 3950 fluorescence intensity (a.u.).
“AAGGATTAATCGTGCCCTTGATTTGTATGATGAGTTCCGTCGGAGTCACCTAGTGCAG” was tested, and the binding signal was 22700 fluorescence intensity (a.u.).
“CCTGCCAATTATAGTGGTCATTTCTCTAGGGACGGACTGGCGGAGTCACCTAGTGCAG” was tested, and the binding signal was 6700 fluorescence intensity (a.u.).
With “GCTTTGTTTTGTTGATTGATATAGGTATGGATTGAATTCTCGGAGTCACCTAGTGCAG” the binding signal was 23000 fluorescence intensity (a.u.).
“ACTGCATTATCGGTGATTACCTAAGTTACCATTTCATAGTCGGAGTCACCTAGTGCAG” was tested, and the binding signal was 8680 fluorescence intensity (a.u.).
With “TTTAAATTAGGATAAATCCATTTGACCTTCCCTCAGCTGGCGGAGTCACCTAGTGCAG” the binding signal was 5980 fluorescence intensity (a.u.).
With “GAATTACGTGTATAATTTAATTTAGAATTTTCGATGATATCGGAGTCACCTAGTGCAG” the binding signal was 3880 fluorescence intensity (a.u.).
“TCAATTTCAATCAAACTTTCAATTTTGACGTGAACACGTTCGGAGTCACCTAGTGCAG” was tested, and the binding signal was 36900 fluorescence intensity (a.u.).
For “TGAATAATTGACAATTTAACCAGACCATTAATTAATTGTTCGGAGTCACCTAGTGCAG”, the binding signal was 62400 fluorescence intensity (a.u.).
In the case of “GGCCTCTTTGATTTGTATAAATTTTGGAGGATTTCAATCCCGGAGTCACCTAGTGCAG”, the binding signal is reported as 24000 fluorescence intensity (a.u.).
For “CAGATAATTTATTCAAGGTGCATCTTAGGGATGTTTGTTTCGGAGTCACCTAGTGCAG”, the binding signal was 33200 fluorescence intensity (a.u.).
“GGCAGTGACTAATTAACCTCACGGATGACAGGCGGCGAAACGGAGTCACCTAGTGCAG” was tested, and the binding signal was 10300 fluorescence intensity (a.u.).
With “CTAATAACAAAACAAATTACAGATTTCGCCTGTAATATGCCGGAGTCACCTAGTGCAG” the binding signal was 9460 fluorescence intensity (a.u.).
“AAACAAACATGACATAATTACTTTATCATAAATTTGAAAACGGAGTCACCTAGTGCAG” was tested, and the binding signal was 9640 fluorescence intensity (a.u.).
For “ATCAACTGGTAAATTTACAAGGCAAATTTTGAATCCGTATCGGAGTCACCTAGTGCAG”, the binding signal was 8980 fluorescence intensity (a.u.).
“ATGATGTGTTAATTCATTTGTTGCTATTGATAAGTTACTTCGGAGTCACCTAGTGCAG” was tested, and the binding signal was 4620 fluorescence intensity (a.u.).
In the case of “GATGGATTGGTAGCGAGCGTGTGAGGAAGTCAGGATTGAGCGGAGTCACCTAGTGCAG”, the binding signal is reported as 3230 fluorescence intensity (a.u.).
